Test results from patent US12241058B2, “Recombinant microbial system for directed evolution of glycocins and method of preparation thereof” (COUNCIL OF SCIENTIFIC & INDUSTRIAL RESEARCH, priority 2018, dated 2025).
No end group written: not given here. *: point of attachment. X1 = OC[C@H]1O[C@@H](O[C@H]2[C@H](O)[C@@H](O)[C@H](*)O[C@@H]2CO)[C@H](O)[C@@H](O)[C@@H]1O

Assays:
[1] = tested on: Vibrio cholerae MTCC 3904; test: Agar diffusion test (ADT) of cleaved neo-glycocins; format: cell-based
L. monocytogenes = test: pH and heat stability, bioactivity verified using ADT assay; settings: treated for 24 hours, ADT assay of neutralized peptide solution

Substance	Bioactivity against Gram negative bacteria Vibrio cholerae MTCC 3904 [1]	Bioactivity against L. monocytogenes post treatment with pH 2-10 (L. monocytogenes)
MASKRDCNLMKATCAGQAVTYAIHSLLNRLGGDS(X1)SDPAGCNDIVRKYCK (cysteines drawn unpaired) [SEQ ID NO: 10]	observed	retain bioactivity
MASKRDCNLMKACCAGQAVTYAIHSLLNRLGGDS(X1)SDPAGCNDIVRKYCK (cysteines drawn unpaired) [SEQ ID NO: 9, Enterocin 96, reference compound]	not	–
